Measured values as given in the RNAGym collection of RNA variant scans (doi:10.7554/elife.90254).
Read counts are not given, so values of variants with three or more changes are uncertain.

B1: LINE1-full (parent)
chain: UACGUAGGUGGUUUUCCCCUGAUAGUGCUAAGGGGGCCUGGAAGUUUGGACUGGGCAGAGCUCAACACAGCGUGGCAAAGUGGCUGUGGCUAGACUGCCUCUCUGGAUUCCUCGUCACUCAGCAGGGCAUCUCUGAGAGAAAUGCC

Variants of: B1
Assay: self-cleavage, relative activity (ratio to wild type); higher = more cleavage; in vitro, sequencing; the parent is a self-cleaving ribozyme

Q: Which self-cleavage does the source give for U23C A77U C90A C116A here?
A: 0

Q: With U23C G72A A94G as the variant, how does the self-cleavage read?
A: 0.29

Q: Which self-cleavage does the source give for U23A U62C A77G G86A here?
A: 0.05

Q: Which self-cleavage does the source give for A22G U39A A57C here?
A: 0.11

Q: With A22G U47A U112C as the variant, how does the self-cleavage read?
A: 1.19

Q: With A24G A30U C113U as the variant, how does the self-cleavage read?
A: 0.72

Q: Which self-cleavage does the source give for A22U A43U A79U A124G here?
A: 1.19

Q: For U23A C56U U62C U132C, which self-cleavage is on record?
A: 0.33

Q: For U23C A24G U87C, which self-cleavage is on record?
A: 1.1

Q: With A22G U46C A129G C145A as the variant, how does the self-cleavage read?
A: 0.92

Q: For A24G A50G C66U A79G A129G, which self-cleavage is on record?
A: 0

Q: For A22U U134C A141G, which self-cleavage is on record?
A: 0.84

Q: For A22G U134C U143G, which self-cleavage is on record?
A: 1.31

Q: With U23C U115C G127A A140U as the variant, how does the self-cleavage read?
A: 2.08

Q: For A22G U104A U134A, which self-cleavage is on record?
A: 1.48

Q: With A22U G34C G60A U132C A142C as the variant, how does the self-cleavage read?
A: 0.15

Q: For A22G U115A U132G A141G, which self-cleavage is on record?
A: 1.53

Q: With U23C U87A A141G as the variant, how does the self-cleavage read?
A: 0.09

Q: With A22G G127A A140G as the variant, how does the self-cleavage read?
A: 1.84

Q: For U23C G72A A117U, which self-cleavage is on record?
A: 1.35

Q: Which self-cleavage does the source give for A22G U39C U73C U130C here?
A: 1.53

Q: With A24G A43G U45G as the variant, how does the self-cleavage read?
A: 1.15

Q: Which self-cleavage does the source give for A22G U130C A141U here?
A: 2.07

Q: For A22G U104C U130C, which self-cleavage is on record?
A: 1.15

Q: With U23G U52A U104C as the variant, how does the self-cleavage read?
A: 1.18

Q: For A22G U39C A65G, which self-cleavage is on record?
A: 0

Q: Which self-cleavage does the source give for A22G U26C G54A U96C here?
A: 0.16

Q: For A22G U96A U112C, which self-cleavage is on record?
A: 0.11

Q: With U23C U39A C95U as the variant, how does the self-cleavage read?
A: 0.33

Q: Which self-cleavage does the source give for U23C U104C U115C here?
A: 2.04

Q: With U23C A50G A69U A79G U100C as the variant, how does the self-cleavage read?
A: 0

Q: With A24G A67U G74U U108C U109C U119C as the variant, how does the self-cleavage read?
A: 0

Q: With A24C U62C A124G G126A A129U as the variant, how does the self-cleavage read?
A: 0.12

Q: With U23C A31G A117U A138G as the variant, how does the self-cleavage read?
A: 1.2

Q: For A22G U104A A140G, which self-cleavage is on record?
A: 0.56

Q: For U23A U46A A57G U100C, which self-cleavage is on record?
A: 1.02

Q: With A22G U23C C56U U112A A142G as the variant, how does the self-cleavage read?
A: 0.23

Q: With A22U A78G A129G as the variant, how does the self-cleavage read?
A: 1.75

Q: With A22G U39A U109C as the variant, how does the self-cleavage read?
A: 1.65

Q: With U23C A24G C51U as the variant, how does the self-cleavage read?
A: 1.19

Q: Which self-cleavage does the source give for A22G U26A U134C here?
A: 1.64

Q: With U23C A42G U46C C118G G125U as the variant, how does the self-cleavage read?
A: 1.06

Q: With A22G U46C A50G U73A A77U as the variant, how does the self-cleavage read?
A: 1.06

Q: Which self-cleavage does the source give for A22G G97A U115C A140G here?
A: 0.3

Q: For A22U C68U C131U, which self-cleavage is on record?
A: 0.09

Q: For A22G U47A U100C, which self-cleavage is on record?
A: 1.84

Q: For U23C A121C A136U, which self-cleavage is on record?
A: 1.48

Q: Which self-cleavage does the source give for A22U G97A U100C here?
A: 0.33

Q: For A22G G58U A79G, which self-cleavage is on record?
A: 0.08

Q: With A22G G35C U47G U85A A140G as the variant, how does the self-cleavage read?
A: 0.23

Q: For U23C A50U A138G, which self-cleavage is on record?
A: 1.38

Q: With A22G U52G U104C as the variant, how does the self-cleavage read?
A: 2.3

Q: Which self-cleavage does the source give for U23A U130C U134C here?
A: 1.07

Q: Which self-cleavage does the source give for A22G U62C C63U U102A here?
A: 0.06

Q: With A22G U39A A59G as the variant, how does the self-cleavage read?
A: 0.13

Q: Which self-cleavage does the source give for A22G G33C A67U A94G here?
A: 0.24

Q: For A22G U52A U115A, which self-cleavage is on record?
A: 1.09

Q: Which self-cleavage does the source give for A22G C66U U85A A140G here?
A: 0.04

Q: For U23C A79G A121G U134C, which self-cleavage is on record?
A: 1.2

Q: With A22G U85A U102A as the variant, how does the self-cleavage read?
A: 0.14

Q: Which self-cleavage does the source give for A24G A57U U112C here?
A: 0.26

Q: Which self-cleavage does the source give for U23A A78G C113A here?
A: 0.73

Q: With U23C U45C A57U G93A U100C U112G A121U as the variant, how does the self-cleavage read?
A: 0

Q: For U23C A57G A121G, which self-cleavage is on record?
A: 0.82

Q: For U23C C76U U132C A138G, which self-cleavage is on record?
A: 0.27

Q: For U23C U81C G105U, which self-cleavage is on record?
A: 1.81

Q: Which self-cleavage does the source give for U23C C95U A141G here?
A: 0.31

Q: Which self-cleavage does the source give for A22U A31C A69G here?
A: 0.21

Q: Which self-cleavage does the source give for A22U A69U U81C A107U A117G here?
A: 0

Q: With U23C C56U C90G as the variant, how does the self-cleavage read?
A: 0.03

Q: Which self-cleavage does the source give for A22G C84A G114U U132C A141G here?
A: 0.16

Q: For A22G A117G A121G, which self-cleavage is on record?
A: 0.48

Q: For U23A A30G U39C A57G, which self-cleavage is on record?
A: 0.92

Q: Which self-cleavage does the source give for A22U U26A U39C here?
A: 0.84

Q: For U23A A50G U104A U112C A136G, which self-cleavage is on record?
A: 1.25

Q: Which self-cleavage does the source give for A22U U46C C63U C84A U104C here?
A: 0.09

Q: Which self-cleavage does the source give for A22G U46C A65G here?
A: 0

Q: Which self-cleavage does the source give for U23C A64U U104C U143C here?
A: 0.87

Q: With A22G U45C U46C as the variant, how does the self-cleavage read?
A: 1.06

Q: For U23C A24G G55C U96A A141G, which self-cleavage is on record?
A: 0.12

Q: With A22G G72A A129U as the variant, how does the self-cleavage read?
A: 1.1

Q: For A22G G48A A141G, which self-cleavage is on record?
A: 0.88

Q: With U23C U46C U132C A136G as the variant, how does the self-cleavage read?
A: 0.8
